Read counts are not given, so values of variants with three or more changes are uncertain.
B1: CPEB3 Ribozyme (parent)
chain: UAACAGGGGGCCACAGCAGAAGCGUUCACGUCGCAGCCCCUGUCAGAUUCUGGUGAAUCUGCGAAUUCUGCUGUAUAUCUC

Variants of: B1
Assay: self-cleavage, relative activity (ratio to wild type); higher = more cleavage; in vitro, sequencing
Summary of the method: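 Relative activity was defined as the cleaved/total read fraction for a variant divided by the same fraction for the unmutated ribozyme. CPEB3 self-cleaving ribozyme libraries were made by rounds of error-prone PCR, barcoded, and transcribed in vitro with T7 RNA polymerase for 5 hours at 37°C, and cleavage ran through transcription plus a 15 min DNase I step before EDTA. Illumina sequencing of template-switched reverse transcripts gave the reads, and DNA sequencing mapped the barcodes. Averages come from three batches, using variants with at least 5 reads.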
For UAACAUGGGGCCACAGCAGAAGCGUUCACGUCGCAGCCCCUGCCAGAUUCUCGAGGAUCUGCGAAUUCUGCUGUAUAUCUC, the self-cleavage was 0.24.
Variant UAACAGAGGGCCACAGCGGAAGCGUUCGCGUCGCAGCCCCUGUCAGAUUCUGGUGAAUCUGCGAAUUCUGCUGUGUAUCUC has a self-cleavage of 0.23.
UAACAUGGGGCCACAGCAGAAGCGUCCACGUCGCAGCCCUUGUCAGAUUCUGGUGAAUCUGCGAAUUCUGCAGGAUAUCUC gave a self-cleavage of 0.08.
UAACAUGGGGCCACAGCAGAAGCGUUCACGUCGCAGCCCCUGUCAGAUUCUGGCGAAUCCGCGAAUUCUGCUGUAUAUCUC showed a self-cleavage of 0.05.
For UAACAGAGGGCCGCAGCAGAAGCGUUCACGUCCCAGCCCCUGUCAGAUUCUGGUGAAUCUGCGAAUUCUGCUGUAUACCUC, the self-cleavage was 0.2.
With UAACAGAGGGCCACAGCAGUAGCGUUCAUGUCGCAGCCCCUGUCAGAUUCUGGUGAGUCUGCGAAUACUGCUGUAUAUCUC the self-cleavage was 0.04.
With UAACAGAGGGCCACAGCGGAAGUGUUCACGUCGUAGCCCCUGUCAGAUCCUGGUGAAUCUGCGAAUUCUGCUGUAUAUCUC the self-cleavage was 0.35.
In the case of UAACAGAGGGCCACAGCGGAAGCGUUCACGUCGCAGCCCCUGUCAGAUUCUGGUGAAUCUGCGAGUUCUGCUGUAUAUCUC, the self-cleavage is reported as 0.16.
UAACAGAGGGCCACAGCGGAAGCGUUCACUUCGCAGCCCCUGUCAGAUUCUGGUGAAUCUGCGAAUUCUGCUGUAUAUCUC showed a self-cleavage of 0.06.
With UAACAGAGGGCCGCAGCAGAAGCGUUCACGUCGCAGCCCCUGUCUGAUUCUGGUGAAUCUGCGAAUUCUGCUGUAUAUCUC the self-cleavage was 0.27.
UAACAGAGGGCCACAGCUGAAGCGUUCACGUCGCAGCCCCUGUCAGAUUCUGGUGAAUCUGCGAAUUCUGCUGUGUAUCUC gave a self-cleavage of 0.03.
UAACAGAGGGCCACGGCAGAAGCGUUCACGUCGCAGCCCCUGUCAGAUCCUGGUGAAUCUGCUAAUUCUGCUGUAUAUCUC gave a self-cleavage of 0.04.
For UAACAGAGGGCCGCAGCAGGAGCGUUCACGUCGCAGCCCCUGUCAGACUCUGGUGAAUCUGCGAGUUCUGCUGUAUAUCUC, the self-cleavage was 0.08.
UAACAUGGGGCCACAGCAGAAGCGUUCACGUCGCAGCCCCUGCCAGAUUCUGGUGAAUCUGCGAAUUCUGCUCAAUAUCUC gave a self-cleavage of 0.34.
UAACAUGGGGCCACAGCAGAAGCGUUCACGCCGCAGCCCCUGUCAGAUUCUGGUGAGUCUGCGAAUUCUGCUGUAUAUCUC showed a self-cleavage of 0.26.
Variant UAACAGAGGGCCACCGCAUAAGCGUUCACGUCGCUGCCCCUGUCAGAUCCUGGAGAAUCUGCGAAUUCUGCUGUACAUCUC has a self-cleavage of 0.04.
Variant UAACAGAGGGCCACAGCAGUAGCGUUCGCGUCGCAGCCCCUGUCAGAUUCUGGUGAAUCUGCGAAUUCUGCUGUAUAUCUC has a self-cleavage of 0.08.
Work on UAACAGAGGGCCACGGCAGAAGCGUUCACGUCACAGCCCCAGUCAGAUUCUGGUGAGUCCGCGAAUUCUGCUGUAUAUCUC yielded a self-cleavage of 0.04.
Variant UAACAGAGGGCCGCAGCAGAAGAGUUCAUGUCGCAGCCCCUGUCAGAUUCUGGUGAAUCUGCGAAUUCUGCUGUAUAUCUC has a self-cleavage of 0.11.
With UAACAGAGGGCCUCGGCAGAAGCGCUCACGUCGCAGCCCCUGUCAGAUUCUGGUGAGUCUGCGAAUUCUGCUGUAUACCAC the self-cleavage was 0.14.
In the case of UAACAGAGGGCCACGGCUGAAGCGUUCACGUCGCAGCACCUGUCAGAUUCUGGUGGAUCUGCGAAUUCUGCUGUAUAUCUC, the self-cleavage is reported as 0.25.
Work on UAACAGAGGGCCUCAGCAGAAGCGUUCACGUCGCAGCCCCUGUCAGAUUCUGGUGAAUCUGCGAAUUCUGCUGAAUAUCUC yielded a self-cleavage of 0.08.
Work on UAACAGAGGGCCACAGCUGAAGCUUUCACGUCGCAGCCCCUGUCAGAUUCUGGUGAAACUGCGGAUUCUGCUGUAUAUCUC yielded a self-cleavage of 0.05.
UAACAGAGGGCCUCAGCAGAAGCGCUCACGCCGCAGCCCCUGUCAGAUUCUGGUGAAUCUGCGAAUUCCGCUGUACAUCUC showed a self-cleavage of 0.04.
Variant UAACAGAGGGCCACAGCAGUAGCGUUCACGUCGCAGCCCCUGUCAGAUUCUGGUGAGUCUGCGAAUUCUGCUGUAUAUCUC has a self-cleavage of 0.28.
With UAACAGAGGGCCACAGCGGAAGCGUUCACGACGCAGCCCCUGUCAGAUUCUGGUGAAUCUGCGAAUUCUGCUGUAUAUCUC the self-cleavage was 0.06.
In the case of UAACAGAGGGCCGCGGCAGAAGCGUCCACGUCGCAGCCCCUGUCAGAUUCUGGUGAAUCUGCGAAUUCUGCUGUAUAUCUC, the self-cleavage is reported as 0.08.
Variant UAACAGAGGGCCACGGCAGAAGCGUUCACGUCGCGACCCCUGUCAGAUUCAGGUGAAUCUGCGAAUUCUGCUGUAUAUCUC has a self-cleavage of 0.09.
Variant UAACAGAGGGCCACAGCGGAAGCGUUCGCGUCACAGCCCCUGUCAGAUUCUGGUGAAUCCGCGAAUUCUGCUGCAUAUCUC has a self-cleavage of 0.14.
Work on UAACAUGGGGCCACAGCAGAAGCGUCCACGUCGCAGCCCCCGUCAGAUACAGGUGAAUCUGCGAAUUCUGCCGUAUAUCUC yielded a self-cleavage of 0.29.
UAACAGAGGGCCGCAGCAGAAGCGUUCACGUCGCAGCCCCAGUCAGAUUCUGGUGAAUCUGCGAAUUCUGCUGUAUAUCUC gave a self-cleavage of 0.07.
With UAACAGAGGGCCACAGCGGAGGCGUUCACGUCGCAGCCCCUGUCAGAUUCUGGUGAAUCUGCGAGUUCAGCUGUAUAUCUC the self-cleavage was 0.2.
Variant UAACAGAGGGCCACAGCAGGAGCGCUCACGCCGCAGCCCCUGUCAGAUUCUGGAGAAUCUGCGAAUUCUGCUGUAUGUCUC has a self-cleavage of 0.12.
UAACAUGGGGCCACAGCAGAAGCGUUCACGUCGCAGCCCCUGUCAGAUUCUGGCGAAUCUGCGGAUUCUGCUGUGUAUCUC showed a self-cleavage of 0.13.
